Data published in patent US4204038A, “Process for preparing antibiotics MA 144-M1 and MA 144-M2” (Zaidan Hojin Biseibutsu Kagaku Kenkyu Kai, priority 1976, dated 1980).
Converted amounts (≈) assume the structure as drawn.

Assays:
[1] = test system: L1210 cells; assay: DNA synthesis in cultured L1210 cells; type: cell-based, mice; conditions: Mus musculus, 14C-precursor, read-out: ID50, DNA synthesis
Description: (§1) In this experiment, L1210 cells were inoculated in RPMI 1640 medium (Nissui, Roswell Park Memorial Institute 1640) containing 10% calf serum and cultivated at 37° C. for 3 days in a CO2 incubator, and MA 144-M1, MA 144-M2 and ^14 C-precursor were added at various concentrations. Effects on the synthesis of protein, RNA and DNA were indicated by the 50% inhibition concentration (μg./ml.) as shown in the following table.

[2] = test system: L1210 cells; assay: RNA synthesis in cultured L1210 cells; type: cell-based, mice; conditions: Mus musculus, 14C-precursor, read-out: ID50, RNA synthesis
Description: as §1

CCC1(O)CC(OC2CC(N(C)C)C(OC3CC(O)C(OC4CCC(O)C(C)O4)C(C)O3)C(C)O2)c2c(cc3c(c2O)C(=O)c2c(O)ccc(O)c2C3=O)C1C(=O)OC (centres unmarked) [MA 144-M2]
IC50 [1]: 1 mg/L (≈ 1.2 µM) | IC50 [2]: 0.5 mg/L (≈ 0.602 µM)
